Experimental data as given in the supplement of paper PMC10126150.
Sequences with one replicate were seen in a single cluster, so their values are uncertain.

System: ATP
Experiment: switch fluorescence ratio, 500 uM ATP over buffer (Cy3 cluster intensity, sum of 5 cycles each) (fold (ratio)); higher = stronger signal-on switching upon ATP binding; sequences stand for … in TCGTCGGCAGCGTCAGATGTGTATAAGAGACAGTTTTTTTTTTTTTTTTTTTTTTTTT…TC
Details: aptamer strand: ATP DNA aptamer (quencher-CACCTGGGGGAGTATTGCGGAGGAAGG + anchor), 100 nM annealed; ATP concentration: 500 uM; one replicate
Method in brief: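 The fluorescence ratio divides summed target-cycle Cy3 intensity by summed buffer-cycle Cy3 intensity for each cluster and is averaged per switch-domain sequence. Cy3-labelled switching-strand clusters on a modified Illumina MiSeq flow-cell were annealed to 100 nM quencher-labelled ATP aptamer, then imaged in selection buffer and again after 15 min with 500 uM ATP at 22 °C. Five such cycles were run, with NaOH stripping and re-annealing between them, and clusters outside 100-1000 RFU were excluded.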
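Note: ATP exposure 15 min at 22 °C before imaging.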

Sequence | switch fluorescence ratio
GGTCAAAAGT | 1
CGCGGGTGC | 1.16
GGACCACTGA | 1.08
CATAGTACAG | 1.09
TCCTTATTCC | 1.15
GTCCTCACCG | 0.98
GTTAGTGACA | 1.02
CTGAGAATCG | 0.976
GAAGGCTTAT | 0.993
CCTGAGGGCA | 1.01
TTGTCGTAAT | 1.02
TCAGAGAATT | 1.03
CACATGGTTC | 1.05
ATCTCATATT | 0.998
CTAATTGTTC | 0.982
ATAGATTGTA | 0.995
CAATTAGGCG | 1.03
GGTGAATCCG | 1.04
ATTATTACCA | 1.02
TGGACAACTA | 1.08
ACTTAGCAAC | 1.93
GGGACTTTTA | 0.961
TAAAGTCGCC | 0.96
TTACTACATC | 1.03
GATCTCGGAC | 0.998

Sequence | switch fluorescence ratio
GATTCGCGGT | 1.01
ATTTAATAAA | 1.02
ACAGATGAAC | 1.03
CTGGACTAAT | 0.968
ATAGGTTATG | 0.945
GACCCAGATC | 1
AGTACCAGCG | 1
ATCCCATTTG | 0.953
GAAACTCGAG | 1.01
AAATGGGGTG | 1.01
ATTAGAGGAG | 1.03
ACGCCCGATA | 1.12
TCATTAAACT | 1.03
TGCCTGGTGG | 1
GTCCGTCATC | 1.07
CCTCGTTGTT | 1.04
GACCTAGGTG | 1.74
CAGTTGCGTG | 1.02
TTAAGGTCAG | 0.995
TCCTAATAGC | 1.06
TAATCAATTG | 0.983
TTTGCAATAT | 1.23
TCCCAGCTGC | 2.14
AGGGCCTGTA | 1.03
ATGTGTTTCC | 1.06

Sequence | switch fluorescence ratio
TAAAATTGCG | 1.05
CCTCAAGTGG | 1.14
GGATGCTCCG | 0.968
TTACACGTCG | 1.07
AGCCGCGTCG | 1.01
GGGAAGGCTG | 1
GCGCTACCTT | 1.12
GCGAATGTCA | 0.972
TGTGGGTAAT | 0.979
AGTCGTCCCT | 1.01
CAGATCTTTC | 1.02
GATCTGGCAG | 0.974
CTACTAGGAC | 1.06
GCTGTACCTT | 1.09
GACTTATCTG | 1
CACTGGTCG | 1.05
CTAGAGGTTA | 0.977
ATGCCTGGTT | 0.986
TGACGAAGTA | 0.998
GGAACGCATG | 1.05
TAAGAAACGT | 1.01
TATGATCAGC | 1.02
CATATTAATG | 0.989
TTTTCCGGCG | 1.11
TCTCTTTGGG | 1.11

Sequence | switch fluorescence ratio
TACCCGAAGG | 0.939
GGTCCTCATG | 1.03
AAGTTTCGTC | 1.02
GGGCGATATC | 1.34
TCGGGCTTAA | 1.02
CTTGTGCTTC | 0.976
AATTATCCCC | 1.04
TTTCATATAT | 0.983
CGGCCTGTGA | 1.05
ACTATAGT | 1.03
CCTAGAGTTA | 1.04
TTTGGTTCGG | 0.969
ATTCGAATAG | 0.971
CATTAGCAG | 1.11
GCGCAGGAAT | 1.01
GTTGATACGT | 1.03
GTCTCCCTCT | 1.03
ATCATATTT | 1.04
GCTTTCACGT | 0.976
ATTCTTACGG | 0.962
CAATCCCCGC | 1.2
AGAGCATCCT | 1.08
TGCCGGGATT | 0.991
TTGCCTACTG | 0.899
GCATCTCTAA | 1.02

Sequence | switch fluorescence ratio
GCCGCTCGCA | 1.21
ATACGTTTAA | 1.11
CATAAGTTAC | 1.17
AGGATGGTAG | 0.987
TCGCAGTATT | 1.41
CAGAGGGGAA | 1
GGTTTGAATT | 0.986
TGGTTTATCG | 1
AACAACGTTC | 0.998
GGTGTTCGGT | 1.04
CGGACCAGAA | 1.06
TTGTATTTT | 1.02
CAGTTCCTTG | 0.999
CCATACTGAG | 0.992
CTAGACTCAG | 1.02
AGCCAACAGT | 1.03
GAAAATGAGG | 1.02
TGCGCGAACT | 0.987
CAAGATAATG | 0.964
ACGGAGTCCA | 0.965
TTGCAACAG | 1.02
TGGTCAATTT | 0.962
GCGCCCCGTT | 0.949
GCGCCGGAGG | 1.04
GTGATGAAAG | 1

Sequence | switch fluorescence ratio
CGTAGCCCTA | 1.05
TACATCTTTT | 0.993
GGCCATCATT | 1.07
ATAACGCAAC | 1.28
CCGGTTTCAA | 1.26
CGACCAGACG | 1.06
CTTCTTAAAC | 1
ATGCCGAGCG | 1.02
ACCGCTCCCT | 1.39
CAGATAGTTT | 0.987
ATAGCGGGCC | 1.03
ACCCGTGGGA | 1.03
GACAGCGCAA | 3.05
CAGTCATGCG | 0.921
TATCCAGACC | 1
TATATTCTT | 1.06
GGTGGAGAA | 0.961
ATGTGATAG | 1.03
CTCTTACCGC | 1.01
CTCCAGGCAC | 2.83
CCCAGGATT | 1.13
ATCTATTGGT | 0.998
TCTATAGTGA | 1.03
ATGCGTCCTG | 1.01
TGTTGCATCT | 0.935

Sequence | switch fluorescence ratio
GGCGCTGCTG | 0.988
CAATAAGGAA | 1
ACACTTTGCT | 0.999
CCAAGTTCAT | 0.999
GGGCCCATTT | 1.01
AATTTCTCAC | 1.02
GAAGACAACG | 1.09
TAAACTCGGT | 0.981
TTAAGAGTCG | 1.07
TGCAAATGTT | 1.03
GAAATTGGAC | 1.06
AATTATGATC | 0.98
TCAGGCCTTT | 0.991
ATCTACACAG | 1.05
TGTTACACCA | 1.04
CTGGATACTG | 1.08
GAAAGGGAGA | 1.02
TGTTATTCCC | 1.07
TCGGGTGTA | 0.954
GTAACTATAT | 1.08
ACTCAAGGGG | 1.06
AAGTGGTTCA | 0.971
GGATGCAGT | 0.962
ATGATTACGG | 1.01
TGTGGCCGCG | 1.02

Sequence | switch fluorescence ratio
GGGACACGTA | 1.02
TGCCCGCCTC | 1.16
ATAAGTAGGT | 1.06
ACATATCCAT | 1.03
TACGTGCACT | 1.03
TCGTGAACAC | 1.03
TCAGAAGCAA | 3.91
TAAATATGCC | 1.06
TTTCTTAT | 0.997
TCGAAATTAC | 1.8
AAGCGCCCGC | 0.93
GGTACTCGTC | 1.02
CCTGGCCGTA | 1.03
ATAAACATTT | 1.01
CCAGACCTCA | 1.03
CTTTTAGCG | 1
ACGGTTCTAT | 1.12
TAAGAAGTGA | 1.01
GCGTAATCCA | 1.03
TGGCGGGGTG | 1.05
CTCTGGGCGT | 0.974
CAGTCACATA | 1.09
CGCTAAGAGT | 1.05
CGTCTACAGT | 0.986
GGCTTCCGA | 2.28
